The whole screen tested about 150,000 compounds, of which about 540 (0.36%) showed an effect of 50% or more. This is one part of the list.
These molecules were tested on Plasmodium falciparum (assay: Primary screen in NF54 nanoGlo assay, in single point, at 2uM, 72h; a lower Z score goes with more inhibition). Conditions: timepoint 72 hour.
Assay type: functional, Erythrocyte

Row | SMILES | % Inhibition | Z score
1 | O=C(c1c[nH]nc1-c1ccccc1)N1CCCC1 | -4% | 0.84
2 | COc1cccc(-c2ccc(N3CCCN(C(=O)CN(C(=O)CC(C)C)C4CC4)CC3)nn2)c1 | -17% | 1.48
3 | O=C1CCCCN1CCCc1ncnn1-c1cccc2c1CCC2 | -13% | 1.74
4 | C=C1C(C(=O)Nc2ccc(C(C)(C)C)cc2)C1C(=O)Nc1ccc(C(C)(C)C)cc1 (stereo unspecified) | 27% | -3.64
5 | O[C@H]1CCN(c2cc(Oc3ccccc3Br)ncn2)C1 | 4% | -0.5
6 | COc1cccc(C(N)=O)c1OCC(=O)NC(C)C | 37% | -4.73
7 | O=C1COc2c(cc(C(F)(F)F)cc2NC(=O)NCCc2cccc(Cl)c2)N1 | 0% | 0.06
8 | COc1cccc(C(=O)OCC2(CC#N)CC2)c1 | 0% | -0.06
9 | COc1cccc(CN2CC[C@H](c3nc(N(C)C)ncc3C(=O)NC(C)C)C2)n1 | 1% | -0.16
10 | Cc1cnc2c(Cl)c(C(=O)NC[C@@H]3COc4ccccc4C3)nn2c1 | 1% | -0.26
11 | Cc1nc2c([nH]1)CN(Cc1scnc1C)CC2 | 0% | -0.02
12 | N#CCC[C@H](C#N)CN1C(=O)NC2(CCCCCCC2)C1=O | -7% | 1.05
13 | Cc1ccccc1-n1ncc([C@H](C)NC(=O)c2ccc(-n3cnnn3)cc2)c1C | -8% | 0.96
14 | CC(C)(C)OC(=O)N1CCc2c(ccc(NC(=O)CCCN3CCOC3=O)c2F)C1 | -9% | 1.55
15 | Cc1csc(CN(C)c2nccc(N3CC[C@H](O)C3)n2)n1 | -6% | 1.02
16 | CN(C(=O)C1CCCC1)c1nc(CNC(=O)C2CCCC2)cs1 | -6% | 0.58
17 | Cc1cc(NC(=O)CN2C[C@H](C)c3ccccc32)no1 | -9% | 1.05
18 | CCc1cc(CC(=O)N2CCC(c3nnnn3C)CC2)n(C)n1 | 3% | -0.53
19 | O=C(Cn1ccnc1[C@H](O)c1ccccc1)NC1CCCCC1 | -2% | 0.27
20 | CCOc1ccnc(N[C@H]2CC=CC[C@@H]2C(N)=O)n1 | -5% | 0.83
21 | Cn1cc(CCC(=O)N2C[C@@H]3CC[C@H]2CN(Cc2cscn2)C3)cn1 | -13% | 1.19
22 | COc1ccccc1CNC(=O)[C@H]1CN(C(=O)c2cccs2)CC12CCCCC2 | 34% | -3.8

Row | SMILES | % Inhibition | Z score
23 | Cc1cc(C(=O)N2CCNC(=O)c3c(C)cccc32)c(C)o1 | 0% | -0.04
24 | Cc1cnc(C2CCN(Cc3cccs3)CC2)n1[C@H](C)CO | -10% | 0.9
25 | CCOCCC1(CNC(=O)[C@@H]2CC=CCC2)CCC1 | -9% | 1.4
26 | O=S(=O)(Nc1cccc2[nH]ccc12)c1ccc2[nH]nnc2c1 | 28% | -3.19
27 | COc1cccc(-c2nc3n(c2C(=O)Nc2cccc(Cl)c2)CCS3(=O)=O)c1 | 40% | -5.4
28 | Cc1ccc(N2CCCN(Cc3ccc(Cl)c(Cl)c3)C2=O)c(NS(=O)(=O)c2cccc(Cl)c2)c1 | -7% | 0.97
29 | Cc1c([C@@H]2CC(=O)Nc3cc(OCC(=O)O)ccc32)oc2ccccc12 | 3% | -0.65
30 | CC(=O)NCCCN(C)C(=O)c1cccc(Br)c1C | -9% | 1.52
31 | O=C(Nc1ccc2c(c1)OCO2)C1CCN(C(=O)c2ccc(Cl)c(N3CCCC3=O)c2)CC1 | 33% | -3.7
32 | COc1ccc(/C=C/c2nc(-c3ccc(N4CCOCC4)cc3)no2)cc1 | 9% | -1.6
33 | CCOC(=O)c1cccnc1N1CCOC2(CCC2)C1 | -8% | 0.84
34 | Cc1ccc(N[C@H]2CCC[C@@H](C(=O)N3CCNC(=O)C3)C2)nc1 | -22% | 2.8
35 | O=C1NC2(CCCC2)C(=O)N1C[C@H](O)COc1cccc2ccccc12 | 3% | -0.59
36 | CCOC(=O)N1CCC(NC(=O)c2c(-c3ccccc3Cl)noc2C)CC1 | -9% | 0.76
37 | O=C(c1ccccc1Cl)N(Cc1cccc(Cl)c1)[C@H]1CCS(=O)(=O)C1 | -7% | 1.25
38 | CCn1cc(C(=O)NCCCOc2cccnc2)cn1 | -15% | 1.78
39 | COC1CCN(c2nnc(C3CCOCC3)n2C)CC1 | -17% | 2.23
40 | COc1ccc2c(n1)N(C(=O)[C@H]1OCC[C@H]1Cn1cccn1)CC2 | 2% | -0.36
41 | O=C1C[C@H](N2CCN(Cc3ccccc3)CC2)C(=O)N1Cc1ccccc1 | 0% | -0.02
42 | Cn1ccnc(OC2CCCCC2)c1=O | 7% | -0.94
43 | CC(C)[C@@H]1C[C@@H](Cc2nc(C3(S(C)(=O)=O)CC3)no2)c2ccccc21 | 0% | 0.01
